# The supplement of paper PMC6089552
# Several values for one entry are separate records, joined by “and”; a condition that tells them apart may be missing. Equal values may be shown once. Out of some 3,200 compounds screened, about 300 (9.4%) showed activity. Only a part is listed here, and it is no random draw.
# Test system: A673/TR/shEF
# Test: cell viability (LOESS-normalised, relative to median of negative controls) (log2 ratio); higher = more viable cells (less compound effect), active = hit call of the paper (over 3 MAD below the median)
# Settings: treatment time: 72 h
# In short: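 Doxycycline, present or absent from 24 h before compounds, was used to induce EWS-FLI1 shRNA knockdown in A673/TR/shEF Ewing sarcoma cells at 1,500 per well in 384-well plates. Cells then received library compounds at two or more concentrations, or DMSO controls, for three days. Viability was measured by CellTiter-Glo luminescence on an Envision reader, and per-plate LOESS correction, division by the negative-control median and log2 transformation followed.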
# [1] = 0.25 µM, library screen: screen1, EWS-FLI1 expression: high (no doxycycline)
# [2] = 0.25 µM, library screen: screen1, EWS-FLI1 expression: low (doxycycline-induced shRNA knockdown)
# [3] = 2.5 µM, library screen: screen1, EWS-FLI1 expression: high (no doxycycline)
# [4] = 2.5 µM, library screen: screen1, EWS-FLI1 expression: low (doxycycline-induced shRNA knockdown)
# [5] = 0.103 µM, library screen: screen3, EWS-FLI1 expression: high (no doxycycline)
# [6] = 0.103 µM, library screen: screen3, EWS-FLI1 expression: low (doxycycline-induced shRNA knockdown)
# [7] = 0.25 µM, library screen: screen2, EWS-FLI1 expression: high (no doxycycline)
# [8] = 0.25 µM, library screen: screen2, EWS-FLI1 expression: low (doxycycline-induced shRNA knockdown)
# [9] = 0.308 µM, library screen: screen3, EWS-FLI1 expression: high (no doxycycline)
# [10] = 0.308 µM, library screen: screen3, EWS-FLI1 expression: low (doxycycline-induced shRNA knockdown)
# [11] = 0.926 µM, library screen: screen3, EWS-FLI1 expression: high (no doxycycline)
# [12] = 0.926 µM, library screen: screen3, EWS-FLI1 expression: low (doxycycline-induced shRNA knockdown)
# [13] = 2.5 µM, library screen: screen2, EWS-FLI1 expression: high (no doxycycline)
# [14] = 2.5 µM, library screen: screen2, EWS-FLI1 expression: low (doxycycline-induced shRNA knockdown)
# [15] = 2.8 µM, library screen: screen3, EWS-FLI1 expression: high (no doxycycline)
# [16] = 2.8 µM, library screen: screen3, EWS-FLI1 expression: low (doxycycline-induced shRNA knockdown)
# [17] = 8.3 µM, library screen: screen3, EWS-FLI1 expression: high (no doxycycline)
# [18] = 8.3 µM, library screen: screen3, EWS-FLI1 expression: low (doxycycline-induced shRNA knockdown)
# [19] = 25 µM, library screen: screen3, EWS-FLI1 expression: high (no doxycycline)
# [20] = 25 µM, library screen: screen3, EWS-FLI1 expression: low (doxycycline-induced shRNA knockdown)
structure (smiles),measurement,setting,value
COc1cccc(CN2CCN(Cc3cc(OC)c(OC)cc3[N+](=O)[O-])CC2)c1,cell viability (log2),[1],inactive: 0.0802
same,cell viability (log2),[2],inactive: 0.0593
same,cell viability (log2),[3],inactive: 0.0795
same,cell viability (log2),[4],inactive: 0.122
COc1cc(OC)c2c(=O)c(-c3ccccc3)c(C)oc2c1OC,cell viability (log2),[1],inactive: 0.0674
same,cell viability (log2),[2],inactive: 0.0259
same,cell viability (log2),[3],inactive: 0.0359
same,cell viability (log2),[4],inactive: 0.0223
CC(C)Cc1ccc(C(C)C(=O)O)cc1 (stereo unspecified),cell viability (log2),[5],inactive: 0.0539 and inactive: 0.0202
same,cell viability (log2),[6],inactive: 0.0749 and inactive: 0.0782
same,cell viability (log2),[1],inactive: 0.0705
same,cell viability (log2),[2],inactive: -0.0597
same,cell viability (log2),[7],inactive: 0.0139
same,cell viability (log2),[8],inactive: 0.043
same,cell viability (log2),[9],inactive: 0.0639 and inactive: 0.0471
same,cell viability (log2),[10],inactive: 0.0528 and inactive: 0.0832
same,cell viability (log2),[11],inactive: 0.0795 and inactive: -0.00697
same,cell viability (log2),[12],inactive: 0.065 and inactive: 0.0261
same,cell viability (log2),[3],inactive: 0.137
same,cell viability (log2),[4],inactive: -0.0717
same,cell viability (log2),[13],inactive: 0.0762
same,cell viability (log2),[14],inactive: 0.0533
same,cell viability (log2),[15],inactive: 0.11 and inactive: 0.0253
same,cell viability (log2),[16],inactive: 0.0843 and inactive: 0.0402
same,cell viability (log2),[17],inactive: 0.0587 and inactive: 0.0777
same,cell viability (log2),[18],inactive: 0.0621 and inactive: 0.0478
same,cell viability (log2),[19],inactive: 0.123 and inactive: 0.0399
same,cell viability (log2),[20],inactive: 0.0838 and inactive: 0.0828
COC1=CC(=O)C=C(OC)C1=O,cell viability (log2),[1],inactive: 0.132
same,cell viability (log2),[2],inactive: 0.117
same,cell viability (log2),[3],inactive: 0.0838
same,cell viability (log2),[4],inactive: 0.00672
CC(C)(C)NCC(O)COc1cccc2c1C[C@H](O)[C@H](O)C2 (stereo partly specified),cell viability (log2),[1],inactive: 0.133
same,cell viability (log2),[2],inactive: 0.0633
same,cell viability (log2),[3],inactive: 0.167
same,cell viability (log2),[4],inactive: 0.136
COc1ccc(C(=O)c2ccccc2O)c(O)c1,cell viability (log2),[1],inactive: 0.135
same,cell viability (log2),[2],inactive: 0.0898
same,cell viability (log2),[3],inactive: 0.256
same,cell viability (log2),[4],inactive: 0.238
Cc1nc2ccc(NC(=S)N3CCC(C)CC3)cc2nc1C,cell viability (log2),[1],inactive: 0.04
same,cell viability (log2),[2],inactive: -0.00492
same,cell viability (log2),[3],inactive: 0.094
same,cell viability (log2),[4],inactive: -0.0413
COCCc1ccc(OCC(O)CNC(C)C)cc1 (stereo unspecified),cell viability (log2),[1],inactive: 0.111
same,cell viability (log2),[2],inactive: 0.036
same,cell viability (log2),[7],inactive: 0.123
same,cell viability (log2),[8],inactive: 0.16
same,cell viability (log2),[3],inactive: 0.122
same,cell viability (log2),[4],inactive: 0.212
same,cell viability (log2),[13],inactive: 0.114
same,cell viability (log2),[14],inactive: 0.0835
N[C@H](C(=O)O)[C@H]1C[C@@H]1C(=O)O,cell viability (log2),[7],inactive: 0.237
same,cell viability (log2),[8],inactive: 0.0918
same,cell viability (log2),[13],inactive: 0.154
same,cell viability (log2),[14],inactive: 0.0251
CCOC(=O)C1=C(O)C(=O)N(Cc2ccccc2)C1,cell viability (log2),[1],inactive: 0.066
same,cell viability (log2),[2],inactive: 0.0602
same,cell viability (log2),[3],inactive: 0.0967
same,cell viability (log2),[4],inactive: 0.0302
O=c1c(O)c(-c2ccc(O)c(O)c2)oc2cc(O)cc(O)c12,cell viability (log2),"25 µM, library screen: screen1, EWS-FLI1 expression: high (no doxycycline)",active: -1.43
Cc1cnc(C(=O)O)c[n+]1[O-],cell viability (log2),[5],inactive: 0.0321
same,cell viability (log2),[6],inactive: -0.00811
same,cell viability (log2),[9],inactive: 0.048
same,cell viability (log2),[10],inactive: 0.11
same,cell viability (log2),[11],inactive: 0.0541
same,cell viability (log2),[12],inactive: 0.0868
same,cell viability (log2),[15],inactive: 0.00227
same,cell viability (log2),[16],inactive: 0.0802
same,cell viability (log2),[17],inactive: 0.0473
same,cell viability (log2),[18],inactive: 0.0657
same,cell viability (log2),[19],inactive: 0.0991
same,cell viability (log2),[20],inactive: 0.0792
CC(=O)Nc1cccc(O)c1,cell viability (log2),[1],inactive: 0.142
same,cell viability (log2),[2],inactive: 0.0568
same,cell viability (log2),[3],inactive: 0.211
same,cell viability (log2),[4],inactive: -0.0215
CSC(N)=NCCC[C@H](N)C(=O)O,cell viability (log2),[7],inactive: 0.185
same,cell viability (log2),[8],inactive: 0.0999
same,cell viability (log2),[13],inactive: 0.101
same,cell viability (log2),[14],inactive: 0.0672
NC(=O)C1=CN([C@@H]2O[C@H](COP(=O)(O)OP(=O)(O)OC[C@H]3O[C@@H](n4cnc5c(N)ncnc54)[C@H](OP(=O)(O)O)[C@@H]3O)[C@@H](O)[C@H]2O)C=CC1,cell viability (log2),[7],inactive: 0.116
same,cell viability (log2),[8],inactive: 0.0445
same,cell viability (log2),[13],inactive: 0.0861
same,cell viability (log2),[14],inactive: 0.0996
CCCCNc1ccc(C(=O)OCCN(C)C)cc1,cell viability (log2),[5],inactive: -0.0387
same,cell viability (log2),[6],inactive: 0.0219
same,cell viability (log2),[1],inactive: 0.076
same,cell viability (log2),[2],inactive: 0.176
same,cell viability (log2),[7],inactive: 0.104
same,cell viability (log2),[8],inactive: 0.0375
same,cell viability (log2),[9],inactive: -0.0374
same,cell viability (log2),[10],inactive: 0.017
same,cell viability (log2),[11],inactive: 0.0331
same,cell viability (log2),[12],inactive: 0.0165
same,cell viability (log2),[3],inactive: 0.214
same,cell viability (log2),[4],inactive: 0.155
same,cell viability (log2),[13],inactive: 0.069
same,cell viability (log2),[14],inactive: 0.0977
same,cell viability (log2),[15],inactive: -0.0305
same,cell viability (log2),[16],inactive: 0.0252
same,cell viability (log2),[17],inactive: 0.0608
same,cell viability (log2),[18],inactive: 0.0489
same,cell viability (log2),[19],inactive: -0.0227
same,cell viability (log2),[20],inactive: 0.0657
CC(C)=CCC/C(C)=C/CC/C(C)=C/CSc1ccccc1C(=O)O,cell viability (log2),[7],inactive: 0.146
same,cell viability (log2),[8],inactive: 0.068
same,cell viability (log2),[13],inactive: 0.0741
same,cell viability (log2),[14],inactive: 0.113
Cc1cccc(C)c1OCC(N)C(C)C (stereo unspecified),cell viability (log2),[7],inactive: 0.0355
same,cell viability (log2),[8],inactive: -0.033
same,cell viability (log2),[13],inactive: 0.0196
same,cell viability (log2),[14],inactive: 0.00962
CN1CCOC(c2ccccc2)c2ccccc2C1 (stereo unspecified),cell viability (log2),[1],inactive: 0.0437
same,cell viability (log2),[2],inactive: -0.00993
same,cell viability (log2),[3],inactive: 0.0915
same,cell viability (log2),[4],inactive: 0.11
COc1ncc(-c2ccc3nccc(-c4ccnnc4)c3c2)cc1NS(=O)(=O)c1ccc(F)cc1F,cell viability (log2),[5],active: -0.686
same,cell viability (log2),[6],active: -0.505
same,cell viability (log2),[9],active: -1.07
same,cell viability (log2),[10],active: -0.722
same,cell viability (log2),[11],active: -1.88
same,cell viability (log2),[12],active: -1.31
same,cell viability (log2),[15],active: -2.85
same,cell viability (log2),[16],active: -2.24
same,cell viability (log2),[17],active: -3.29
same,cell viability (log2),[18],active: -2.78
same,cell viability (log2),[19],active: -3.83
same,cell viability (log2),[20],active: -3.59
C=C1C2CC[C@@]3(C)[C@H](c4ccoc4)OC(=O)C[C@]13O[C@H]1CC(=O)C(C)(C)[C@H](C(O)C(=O)OC)[C@@]21C (stereo partly specified),cell viability (log2),[1],inactive: 0.119
same,cell viability (log2),[2],inactive: 0.156
same,cell viability (log2),[3],inactive: 0.158
same,cell viability (log2),[4],inactive: 0.144
CC(C)NC[C@H](O)COc1cccc2[nH]ccc12,cell viability (log2),[7],inactive: 0.242
same,cell viability (log2),[8],inactive: 0.0575
same,cell viability (log2),[13],inactive: 0.154
same,cell viability (log2),[14],inactive: 0.0647
CC1CN(C(=O)c2cc(-c3ccccc3)nc3ccccc23)CC(C)O1 (stereo unspecified),cell viability (log2),[1],active: -2.9
same,cell viability (log2),[2],active: -2.55
same,cell viability (log2),[3],inactive: 0.0982
same,cell viability (log2),[4],inactive: 0.0382
